Experimental findings from PMC3509445 (Biology Open, 2012) are described below.

For this test, the target named is ThioHis-VHL30 (full-length VHL30 thioredoxin-His fusion protein) (UniProt P40337-1). Kind of test: pull-down.

B1: GST-TLX ΔC[…] (domain or fragment)
chain: MSKPAGSTSRILDIPCKVCGDRSSGKHYGVYACDGCSGFFKRSIRRNRTYVCKSGNQGGCPVDKTHRNQCRACRLKKCLEVNMNKDAVQHERGPRTSTIRKQVALYFRGHKEDNGAAAHFPSTALPAPAFFTAVTQLEPHGLELAAVSATPERQTLVSLAQPTPKYPHEVNGTPMYLYEVAT[here about 150 residues without letters]
Regarding B1, the binding result is reported as “binds”.

B2: GST-TLX FL (natural protein)
chain: MSKPAGSTSRILDIPCKVCGDRSSGKHYGVYACDGCSGFFKRSIRRNRTYVCKSGNQGGCPVDKTHRNQCRACRLKKCLEVNMNKDAVQHERGPRTSTIRKQVALYFRGHKEDNGAAAHFPSTALPAPAFFTAVTQLEPHGLELAAVSATPERQTLVSLAQPTPKYPHEVNGTPMYLYEVAT[here about 150 residues without letters]PSTIEEVFFKKTIGNVPITRLLSDMYKSSDI
B2: the binding result is on record as “binds”.
